# This is one part of the list.
# B1: GS13846A-bth-444-19-444 (Bacteroides thetaiotaomicron) (protein)
# chain: SCENEFDVSDKADSLISVTVNTLNNQAAYNVGETAQAELWIQRGGLKDASGKVQFVVDPLLLDSLNQEDKTNYELLPENCYEMTNTEFTVDKNELCGYITYHPEKILALSAYNETKYVLPLRLISNDLAINPARNTSFLAFTILEPIVHISNAGVYNINPDLTSTMDIQIGVPFTNKWDILCNLTEDLSLIDEYNQINKVNFTLLPENAYTAPESVTLQEGVSQITASYQLKNNLVPGNYILPIKIGSITASQGGVPNNSLVIDEESNVLFCIVKEGNKINKSGWEVIECSSEHAGNEATYMIDDNESTYWHCKFKNEAGSSVPPFHFIIDMKKEITIAQIDLLNRGDGAANNIKWVEFYASNNNSEWDKIGAGDFNDEGTRATFRYYVKSTKARYLKLIIPEGYGNNCPPAAIRELTVYGLEGNN
# How the values were obtained:
# Assay in all cases: glycan array binding signal (z-score within array); higher = stronger binding
# Settings in all cases: glycan notation: IUPAC condensed, linker removed
# Neu5Ac(a2-3)GalNAc = biological target: Neu5Ac(a2-3)GalNAc
# Method in brief: (§1)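 The Consortium for Functional Glycomics database supplied 3228 glycan arrays, of which those lacking an available protein sequence were dropped. The binding signal, a within-array Z-score, was averaged across arrays of the same protein sequence and across linkers. Negative scores can be read as non-binding.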
# [1] = biological target: Neu5Ac(a2-3)GalNAc(b1-4)GlcNAc
# Method in brief: as §1
# [2] = biological target: Neu5Ac(a2-3)[GalNAc(b1-4)]Gal(b1-4)Glc
# Method in brief: as §1
# [3] = biological target: Neu5Ac(a2-3)[GalNAc(b1-4)]Gal(b1-4)GlcNAc
# Method in brief: as §1
# [4] = biological target: Neu5Ac(a2-3)[GalNAc(b1-4)]Gal(b1-4)GlcNAc(b1-3)GalNAc
# Method in brief: as §1
# [5] = biological target: Neu5Ac(a2-3)[Neu5Ac(a2-6)]GalNAc
# Method in brief: as §1
# Neu5Ac(a2-6)Gal = biological target: Neu5Ac(a2-6)Gal
# Method in brief: as §1
# [6] = biological target: Neu5Ac(a2-6)Gal(b1-3)GlcNAc(b1-3)[Gal(b1-4)GlcNAc(b1-6)]Gal(b1-4)Glc
# Method in brief: as §1
# Neu5Ac(a2-6)Gal(b1-4)Glc = biological target: Neu5Ac(a2-6)Gal(b1-4)Glc
# Method in brief: as §1
# [7] = biological target: Neu5Ac(a2-6)Gal(b1-4)GlcNAc
# Method in brief: as §1
# [8] = biological target: Neu5Ac(a2-6)Gal(b1-4)GlcNAc(b1-2)Man
# Method in brief: as §1
# [9] = biological target: Neu5Ac(a2-6)Gal(b1-4)GlcNAc(b1-2)Man(a1-3)Man(b1-4)GlcNAc(b1-4)GlcNAc
# Method in brief: as §1
# [10] = biological target: Neu5Ac(a2-6)Gal(b1-4)GlcNAc(b1-2)Man(a1-3)[Gal(b1-4)GlcNAc(b1-2)Man(a1-6)]Man(b1-4)GlcNAc(b1-4)GlcNAc
# Method in brief: as §1
# [11] = biological target: Neu5Ac(a2-6)Gal(b1-4)GlcNAc(b1-2)Man(a1-3)[GlcNAc(b1-2)Man(a1-6)]Man(b1-4)GlcNAc(b1-4)GlcNAc
# Method in brief: as §1
# [12] = biological target: Neu5Ac(a2-6)Gal(b1-4)GlcNAc(b1-2)Man(a1-3)[GlcNAc(b1-4)][Neu5Ac(a2-6)Gal(b1-4)GlcNAc(b1-2)Man(a1-6)]Man(b1-4)GlcNAc(b1-4)GlcNAc
# Method in brief: as §1
# [13] = biological target: Neu5Ac(a2-6)Gal(b1-4)GlcNAc(b1-2)Man(a1-3)[Man(a1-6)]Man(b1-4)GlcNAc(b1-4)GlcNAc
# Method in brief: as §1
# [14] = biological target: Neu5Ac(a2-6)Gal(b1-4)GlcNAc(b1-2)Man(a1-3)[Neu5Ac(a2-3)Gal(b1-4)GlcNAc(b1-2)Man(a1-6)]Man(b1-4)GlcNAc(b1-4)GlcNAc
# Method in brief: as §1
# [15] = biological target: Neu5Ac(a2-6)Gal(b1-4)GlcNAc(b1-2)Man(a1-3)[Neu5Ac(a2-6)Gal(b1-4)GlcNAc(b1-2)Man(a1-6)]Man(b1-4)GlcNAc(b1-4)GlcNAc
# Method in brief: as §1
# [16] = biological target: Neu5Ac(a2-6)Gal(b1-4)GlcNAc(b1-2)Man(a1-3)[Neu5Ac(a2-6)Gal(b1-4)GlcNAc(b1-2)Man(a1-6)]Man(b1-4)GlcNAc(b1-4)[Fuc(a1-6)]GlcNAc
# Method in brief: as §1
# [17] = biological target: Neu5Ac(a2-6)Gal(b1-4)GlcNAc(b1-2)Man(a1-6)Man(b1-4)GlcNAc(b1-4)GlcNAc
# Method in brief: as §1
# [18] = biological target: Neu5Ac(a2-6)Gal(b1-4)GlcNAc(b1-2)Man(a1-6)[Gal(b1-4)GlcNAc(b1-2)Man(a1-3)]Man(b1-4)GlcNAc(b1-4)GlcNAc
# Method in brief: as §1
# [19] = biological target: Neu5Ac(a2-6)Gal(b1-4)GlcNAc(b1-2)Man(a1-6)[GlcNAc(b1-2)Man(a1-3)]Man(b1-4)GlcNAc(b1-4)GlcNAc
# Method in brief: as §1
# [20] = biological target: Neu5Ac(a2-6)Gal(b1-4)GlcNAc(b1-2)Man(a1-6)[Man(a1-3)]Man(b1-4)GlcNAc(b1-4)GlcNAc
# Method in brief: as §1
# [21] = biological target: Neu5Ac(a2-6)Gal(b1-4)GlcNAc(b1-2)[Neu5Ac(a2-6)Gal(b1-4)GlcNAc(b1-4)]Man(a1-3)[GlcNAc(b1-4)][Neu5Ac(a2-6)Gal(b1-4)GlcNAc(b1-2)[Neu5Ac(a2-6)Gal(b1-4)GlcNAc(b1-6)]Man(a1-6)]Man(b1-4)GlcNAc(b1-4)GlcNAc
# Method in brief: as §1
# [22] = biological target: Neu5Ac(a2-6)Gal(b1-4)GlcNAc(b1-2)[Neu5Ac(a2-6)Gal(b1-4)GlcNAc(b1-4)]Man(a1-3)[GlcNAc(b1-4)][Neu5Ac(a2-6)Gal(b1-4)GlcNAc(b1-4)Man(a1-6)]Man(b1-4)GlcNAc(b1-4)GlcNAc
# Method in brief: as §1
# [23] = biological target: Neu5Ac(a2-6)Gal(b1-4)GlcNAc(b1-2)[Neu5Ac(a2-6)Gal(b1-4)GlcNAc(b1-6)]Man(a1-6)[Neu5Ac(a2-6)Gal(b1-4)GlcNAc(b1-2)Man(a1-3)][GlcNAc(b1-4)]Man(b1-4)GlcNAc(b1-4)GlcNAc
# Method in brief: as §1
# [24] = biological target: Neu5Ac(a2-6)Gal(b1-4)GlcNAc(b1-3)Gal(b1-3)GlcNAc
# Method in brief: as §1
# [25] = biological target: Neu5Ac(a2-6)Gal(b1-4)GlcNAc(b1-3)Gal(b1-4)GlcNAc
# Method in brief: as §1
# [26] = biological target: Neu5Ac(a2-6)Gal(b1-4)GlcNAc(b1-3)Gal(b1-4)GlcNAc(b1-2)Man(a1-3)[Neu5Ac(a2-6)Gal(b1-4)GlcNAc(b1-3)Gal(b1-4)GlcNAc(b1-2)Man(a1-6)]GalNAc
# Method in brief: as §1
# [27] = biological target: Neu5Ac(a2-6)Gal(b1-4)GlcNAc(b1-3)Gal(b1-4)GlcNAc(b1-3)Gal(b1-4)GlcNAc
# Method in brief: as §1
# [28] = biological target: Neu5Ac(a2-6)Gal(b1-4)GlcNAc(b1-3)Gal(b1-4)GlcNAc(b1-3)Gal(b1-4)GlcNAc(b1-2)Man(a1-3)[Neu5Ac(a2-6)Gal(b1-4)GlcNAc(b1-3)Gal(b1-4)GlcNAc(b1-3)Gal(b1-4)GlcNAc(b1-2)Man(a1-6)]GalNAc
# Method in brief: as §1
# [29] = biological target: Neu5Ac(a2-6)Gal(b1-4)GlcNAc(b1-3)Gal(b1-4)GlcNAc(b1-3)GalNAc
# Method in brief: as §1
# [30] = biological target: Neu5Ac(a2-6)Gal(b1-4)GlcNAc(b1-3)Gal(b1-4)GlcNAc(b1-3)[Neu5Ac(a2-6)Gal(b1-4)GlcNAc(b1-3)Gal(b1-4)GlcNAc(b1-6)]GalNAc
# Method in brief: as §1
# [31] = biological target: Neu5Ac(a2-6)Gal(b1-4)GlcNAc(b1-3)Gal(b1-4)GlcNAc(b1-6)[Gal(b1-3)]GalNAc
# Method in brief: as §1
# [32] = biological target: Neu5Ac(a2-6)Gal(b1-4)GlcNAc(b1-3)Gal(b1-4)[Fuc(a1-3)]GlcNAc(b1-3)Gal(b1-4)[Fuc(a1-3)]GlcNAc
# Method in brief: as §1
# [33] = biological target: Neu5Ac(a2-6)Gal(b1-4)GlcNAc(b1-3)GalNAc
# Method in brief: as §1
# [34] = biological target: Neu5Ac(a2-6)Gal(b1-4)GlcNAc(b1-3)[Neu5Ac(a2-6)Gal(b1-4)GlcNAc(b1-6)]GalNAc
# Method in brief: as §1
# [35] = biological target: Neu5Ac(a2-6)Gal(b1-4)GlcNAc(b1-6)GalNAc
# Method in brief: as §1
# [36] = biological target: Neu5Ac(a2-6)Gal(b1-4)GlcNAc(b1-6)[Gal(b1-3)GlcNAc(b1-3)]Gal(b1-4)Glc
# Method in brief: as §1
# [37] = biological target: Neu5Ac(a2-6)Gal(b1-4)GlcNAc(b1-6)[Gal(b1-3)]GalNAc
# Method in brief: as §1
# [38] = biological target: Neu5Ac(a2-6)Gal(b1-4)GlcNAc6S
# Method in brief: as §1
# Neu5Ac(a2-6)GalNAc = biological target: Neu5Ac(a2-6)GalNAc
# Method in brief: as §1
# [39] = biological target: Neu5Ac(a2-6)GalNAc(b1-4)GlcNAc
# Method in brief: as §1
# [40] = biological target: Neu5Ac(a2-6)GalNAc(b1-4)GlcNAc6S
# Method in brief: as §1
# [41] = biological target: Neu5Ac(a2-6)GlcNAc(b1-4)GlcNAc
# Method in brief: as §1
binder,measurement,setting,value
B1,glycan array binding signal (z-score),Neu5Ac(a2-3)GalNAc,-0.224
same,glycan array binding signal (z-score),[1],-0.194
same,glycan array binding signal (z-score),[2],-0.277
same,glycan array binding signal (z-score),[3],-0.26
same,glycan array binding signal (z-score),[4],-0.073
same,glycan array binding signal (z-score),[5],-0.182
same,glycan array binding signal (z-score),Neu5Ac(a2-6)Gal,-0.29
same,glycan array binding signal (z-score),[6],-0.414
same,glycan array binding signal (z-score),Neu5Ac(a2-6)Gal(b1-4)Glc,-0.183
same,glycan array binding signal (z-score),[7],-0.405
same,glycan array binding signal (z-score),[8],-0.309
same,glycan array binding signal (z-score),[9],-0.287
same,glycan array binding signal (z-score),[10],-0.151
same,glycan array binding signal (z-score),[11],-0.256
same,glycan array binding signal (z-score),[12],-0.297
same,glycan array binding signal (z-score),[13],-0.026
same,glycan array binding signal (z-score),[14],-0.204
same,glycan array binding signal (z-score),[15],-0.224
same,glycan array binding signal (z-score),[16],0.228
same,glycan array binding signal (z-score),[17],-0.106
same,glycan array binding signal (z-score),[18],-0.298
same,glycan array binding signal (z-score),[19],-0.112
same,glycan array binding signal (z-score),[20],-0.336
same,glycan array binding signal (z-score),[21],-0.249
same,glycan array binding signal (z-score),[22],0.032
same,glycan array binding signal (z-score),[23],0.02
same,glycan array binding signal (z-score),[24],-0.204
same,glycan array binding signal (z-score),[25],-0.067
same,glycan array binding signal (z-score),[26],-0.321
same,glycan array binding signal (z-score),[27],-0.099
same,glycan array binding signal (z-score),[28],0.79
same,glycan array binding signal (z-score),[29],0.043
same,glycan array binding signal (z-score),[30],0.1
same,glycan array binding signal (z-score),[31],-0.239
same,glycan array binding signal (z-score),[32],-0.235
same,glycan array binding signal (z-score),[33],0.707
same,glycan array binding signal (z-score),[34],-0.33
same,glycan array binding signal (z-score),[35],-0.311
same,glycan array binding signal (z-score),[36],-0.293
same,glycan array binding signal (z-score),[37],1.86
same,glycan array binding signal (z-score),[38],-0.409
same,glycan array binding signal (z-score),Neu5Ac(a2-6)GalNAc,-0.207
same,glycan array binding signal (z-score),[39],-0.289
same,glycan array binding signal (z-score),[40],-0.138
same,glycan array binding signal (z-score),[41],0.027
